Laboratory results published in PubChem BioAssay AID485294 (National Center for Advancing Translational Sciences (NCATS), 2010).
The whole screen tested about 370,000 compounds, of which about 150 (0.041%) were called active. Inconclusive means that the source gave no clear call. Such entries were picked first, then a sample of the others. The call rests on the fitted dose curve; in most records, active means well fitted inhibition curve with a large enough effect; inconclusive means small, poorly fitted or top-dose-only effect; inactive means flat fitted curve, though single readings scatter. No potency is given beside an inconclusive call; the fits are too rough.

What follows are compounds tested against Beta-lactamase (Escherichia coli (strain K12)) (UniProt P00811) (assay: qHTS Inhibitors of AmpC Beta-Lactamase (assay with detergent)). Conditions: AmpC hydrolysis of nitrocefin, absorbance 480 nm, 0.01% Triton; series mostly up to 114 µM.
Method: NIH Molecular Libraries Probe Production Network [MLPCN] NIH Chemical Genomics Center [NCGC] Assay Provider: Professor Brian Shoichet, UCSF Assay Overview: This aggregation profiling approach exploits the sensitivity of aggregate formation to detergent. Inhibition of b-lactamase is measured in the presence and absence of 0.01% Triton X-100. This particular assay had the prescence of 0.01% Triton X-100. See Pubchem assay "Promiscuous and Specific Inhibitors of AmpC Beta-Lactamase (assay without detergent)" for related screen. Compounds that inhibit only in the absence of detergent are considered likely promiscuous aggregators. A screen of 1,030 compounds was performed in Brian Shoichet's lab in 96-well format. AmpC activity was measured by following the absorbance at 480 nm. Nitrocefin is a chromogenic substrate: while nitrocefin is yellow (lmax 390 nm), the product of its hydrolysis is red (lmax 486 nm, 17,000 M-1). AmpC beta lactamase was provided by Shoichet Lab, UCSF.
Buffer: 20 mM phosphate buffer, pH 7.0 Triton X-100: No Detergent screen: 0.0001%, Detergent screen: 0.01%. Reagents/Controls: Buffer in columns 3 and 4 as negative control (no enzyme). 5.3 nM AmpC in columns 1, 2, 5-48. Titration of UCSF compound 9 control (from 10 mM, then 1:2) pin-transferred to column 2. Column 1 is neutral (100% activity). Assay Steps: Six uL of reagents were dispensed to 1536-well Greiner black clear bottom plates. Compounds and controls (23 nL) were transferred via Kalypsys PinTool. The plates were incubated for 15 min at room temperature, and then 2 uL of 800 uM solution of nitrocefin was added to start the reaction. The plates were immediately transferred to and read every 20 seconds for 4 min on ViewLux (Perkin-Elmer) High-throughput CCD imager using 480 nm absorbance protocol. During dispense, reagent bottles were kept submerged into 4 deg C water bath. Keywords: NIH Roadmap, MLSCN, MLI, MLSMR, qHTS, NCGC, AmpC Beta-Lactamase, Aggregation
Further: nearly all actives have a fitted effect of over 25% in size.
Potency means the concentration at half of the fitted maximal effect; tags describe the fitted curve by direction and shape.

Chain of UniProt P00811 (P00811 whole entry, looked up): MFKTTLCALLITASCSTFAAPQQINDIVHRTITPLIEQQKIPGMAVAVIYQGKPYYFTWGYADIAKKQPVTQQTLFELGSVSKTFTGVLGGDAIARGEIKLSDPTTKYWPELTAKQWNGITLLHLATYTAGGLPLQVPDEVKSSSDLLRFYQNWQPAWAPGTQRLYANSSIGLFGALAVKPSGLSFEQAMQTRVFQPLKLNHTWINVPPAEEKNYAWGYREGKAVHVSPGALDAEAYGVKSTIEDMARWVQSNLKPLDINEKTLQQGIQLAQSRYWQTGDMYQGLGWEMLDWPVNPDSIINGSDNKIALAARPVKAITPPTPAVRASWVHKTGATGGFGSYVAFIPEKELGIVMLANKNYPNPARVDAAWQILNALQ

Row | SMILES | Potency
1 | CCOCC(=O)Nc1nnc(SCCOC)s1 | inconclusive [inhibitor, full curve]
2 | Cc1cccc(CN2CCN(Cc3ccco3)CC2)c1 | inactive
3 | Cc1cccc(NC(=O)c2c(C)cc(=O)oc2C)n1 | inactive
4 | CCn1c(Cc2ccccc2)nnc1SCc1nc2ccccc2c(=O)[nH]1 | inconclusive [inhibitor, full curve]
5 | c1ccc(CCNCCCOc2cccc3ccccc23)cc1 | inconclusive [inhibitor, full curve, poor fit]
6 | CCCCN1C(=O)NC(NC(C)=O)(C(F)(F)F)C1=O (stereo not given) | inconclusive [inhibitor, full curve]
7 | CC(C)(C)N(Cc1ccccc1)C(=O)COC(=O)CSc1ccc([N+](=O)[O-])cc1 | inconclusive [inhibitor, partial curve]
8 | C/C(=N\NC(=O)Cc1ccccc1Cl)c1cccnc1 | inactive
9 | c1ccc(CCc2nn3c(C4COc5ccccc5O4)nnc3s2)cc1 (stereo not given) | inconclusive [inhibitor, full curve, poor fit]
10 | O=C(Cn1cc2c(n1)CCCCC2)NCc1ccccc1 | inconclusive [inhibitor, full curve, poor fit]
11 | O=c1cc(C(F)(F)F)[nH]c2c(C(F)(F)F)cccc12 | inactive
12 | Cc1c(C(=O)Nc2ccc(S(=O)(=O)N(C)C3CCN(C)CC3)cc2)oc2c(Cl)cccc12 | inconclusive [inhibitor, full curve]
13 | CC(C)CN(C(=O)COC(=O)CN1C(=O)c2ccccc2C1=O)c1c(N)n(Cc2ccccc2)c(=O)[nH]c1=O | inconclusive [inhibitor, full curve]
14 | CCOC(=O)c1ccc(NC(=S)N2CCN(CCO)CC2)cc1 | inactive
15 | O=P(C1=C(N2CCOCC2)/C(=C\c2ccccc2)CC1)(N1CCOCC1)N1CCOCC1 | inactive
16 | Cc1cccc2c1[nH]c1nc(N/N=C\c3ccco3)nnc12 | inactive
17 | COc1cc(Cl)c(C)cc1NC(=O)COC(=O)CCc1nc2ccccc2c(=O)[nH]1 | inconclusive [inhibitor, partial curve, poor fit]
18 | CCOC(=O)CCc1c(C)c2ccc(OCc3nn[nH]n3)c(C)c2oc1=O | inconclusive [inhibitor, full curve, poor fit]
19 | CCCOc1cccc(C(=O)N(Cc2cccs2)C2CCS(=O)(=O)C2)c1 (stereo not given) | inconclusive [inhibitor, full curve]
20 | C=C1CCC(OC(C)=O)C2(C)CCC3C(C)C(=O)OC3C12O (stereo not given) | inconclusive [inhibitor, full curve, poor fit]
21 | CS(=O)(=O)N(CC(=O)Nc1cccc(Cl)c1)c1ccccc1Cl | inconclusive [inhibitor, partial curve, poor fit]
22 | CC1(C(=O)NCCc2c[nH]c3ccccc23)C=CCN1C(=O)c1ccccc1 (stereo not given) | inactive
23 | O=C(CCNC(=O)c1ccc(Br)cc1)NCc1ccncc1 | inconclusive [inhibitor, single point]
24 | NCCCCC(NC(=O)C1CCCN1C(=O)C1CSSCC(N)C(=O)NC(Cc2ccc(O)cc2)C(=O)NC(Cc2ccccc2)C(=O)NC(CCC(N)=O)C(=O)NC(CC(N)=O)C(=O)N1)C(=O)NCC(N)=O (stereo not given) | inconclusive [inhibitor, full curve, poor fit]

Row | SMILES | Potency
25 | COc1cc(NC(=O)CSc2nc3ccccc3cc2C)c(C(=O)O)cc1OC | inactive
26 | Cc1ccccc1CN1C(=O)c2ccccc2Sc2ccc(C(=O)OCc3ccco3)cc21 | inactive
27 | Cc1nc(-c2ccccc2)cs1 | inactive
28 | COc1cc(C)ccc1OCCCOc1ccccc1Br | inconclusive [inhibitor, single point]
29 | O=C1N=C(N2CCCCC2)S/C1=C/C1=Cc2ccccc2OC1 | inconclusive [inhibitor, partial curve, poor fit]
30 | COc1cccc(N2CC(C)Cn3c2nc2c3c(=O)[nH]c(=O)n2C)c1 (stereo not given) | inconclusive [inhibitor, full curve, poor fit]
31 | COCCCNC(=O)c1c(NC(=O)c2cc(=O)c3ccccc3o2)sc2c1CCCC2 | inactive
32 | CNC(=S)N(Cc1cccs1)Cc1cc2cc(OC)c(OC)cc2[nH]c1=O | inconclusive [inhibitor, full curve, poor fit]
33 | OCCCCC#Cc1c(-c2ccsc2)sc2ccccc12 | inconclusive [inhibitor, full curve]
34 | CS(=O)(=O)c1ccccc1-c1nnc(-c2ccc(Cl)cc2)o1 | inactive
35 | O=C(COc1ccc(Cl)cc1Br)Nc1nnc(C2CC2)s1 | inconclusive [inhibitor, full curve, poor fit]
36 | COC(=O)CN(C)C(=O)c1ccc(OC)c(OC2CCN(C(C)C)CC2)c1 | inactive
37 | CCOC(=O)c1c(NC(=O)/C=C/c2ccco2)sc(C)c1C | inconclusive [inhibitor, partial curve, poor fit]
38 | COC(=O)c1ccccc1NC(=O)COc1ccccc1[N+](=O)[O-] | inconclusive [inhibitor, single point]
39 | Nc1nc(SCC(=O)NCc2ccccc2)n[nH]1 | inconclusive [inhibitor, full curve, poor fit]
40 | Cn1c(SCc2ccccc2)nnc1-c1ccc2c(c1)OCO2 | inconclusive [inhibitor, full curve, poor fit]
41 | COc1ccc(-n2nc(C(=O)NCCc3ccc(OC)c(OC)c3)c3c4ccccc4n(C)c3c2=O)cc1Cl | inactive
42 | Cc1cc(NS(=O)(=O)c2ccc(NC(=O)c3ccco3)cc2)nc(C)n1 | inconclusive [inhibitor, full curve, poor fit]
43 | COc1ccc(S(=O)(=O)N(n2c(C)nnc2-n2nc(C)cc2C)S(=O)(=O)c2ccc(OC)cc2)cc1 | inactive
44 | O=C1Cc2cc(NS(=O)(=O)c3cc(F)ccc3F)cc3c2N1CCC3 | inconclusive [inhibitor, full curve, poor fit]
45 | O=C(NCCN1CCCCC1)Nc1ccc(Cl)cc1 | inconclusive [inhibitor, full curve, poor fit]
46 | COC(=O)CCCNC(=O)CN1CC(c2ccccc2)CC1=O (stereo not given) | inconclusive [inhibitor, partial curve]
47 | CNc1nc(OC)nc(N(C#N)CN2C(=O)c3ccccc3S2(=O)=O)n1 | inactive
48 | CC(=O)c1ccc(S(=O)(=O)N2CCN(C(=O)c3ccc(-n4nc(C)c(Cl)c4C)cc3)CC2)cc1 | inactive

Row | SMILES | Potency
49 | CCc1nc(N2CCNCC2)c(C#N)c2c1CSC(C)(C)C2 | inconclusive [inhibitor, partial curve, poor fit]
50 | O=c1n(Cc2ccc(F)cc2)nc2n1-c1cc(Cl)ccc1OC2 | inactive
51 | c1ccc(C2CC2)c(OCC2=NCCN2)c1 | inconclusive [inhibitor, partial curve, poor fit]
52 | CC(C)(C)NC(=O)CSc1ncccc1-c1nc2ccccc2[nH]1 | inconclusive [inhibitor, full curve, poor fit]
53 | Cc1ccc(C2c3[nH]c4ccccc4c3C[C@H]3C(=O)N(c4ccccc4C(=O)NCCCN4CCOCC4)C(=O)N23)cc1 (stereo not given in full) | inactive
54 | c1ccc(CNc2ncnc3c2cnn3-c2ccccc2)cc1 | inconclusive [inhibitor, full curve, poor fit]
55 | Cc1ccc(C(=O)O)cc1-c1ccc(/C=C2\SC(=O)N(CC(=O)Nc3ccc4c(c3)OCO4)C2=O)o1 | inconclusive [inhibitor, partial curve, poor fit]
56 | COc1ccccc1CCNC(=O)/C(=C/c1cccnc1)NC(=O)c1ccccc1 | inactive
57 | O=C(COC(=O)c1cnccn1)N=c1sccn1Cc1ccccc1Cl | inconclusive [inhibitor, full curve, poor fit]
58 | COc1c(F)c(F)c(C(=O)Nc2cccc(Cl)c2N2CCOCC2)c(F)c1F | inconclusive [inhibitor, partial curve]
59 | Cc1ccccc1CN1C(=O)CS/C1=N/N=C/c1ccco1 | inactive
60 | CCN(CC1CCCO1)C(=O)CCc1nnc(CCc2ccc(OC)cc2)o1 (stereo not given) | inactive
61 | Cc1ccc(NC(=O)CN2C(=O)CCn3nc(-c4cccn4C)cc32)c(Cl)c1 | inactive
62 | CCN(C(=O)c1cccn(Cc2ccccc2C)c1=O)c1ccccc1 | inactive
63 | CN(C)c1ccc(NC(=O)CN2C(=O)c3ccccc3Sc3ccc(C(=O)N4CCCC4)cc32)cc1 | inactive
64 | Cc1ccc(N2C(=O)N3[C@H](c4ccc(Br)cc4)[C@@H]4C(=O)N(C(C)(C)C)C(=O)[C@@H]4[C@]3(C)C2=O)cc1 | inconclusive [inhibitor, full curve, poor fit]
65 | CCOC(=O)c1c(C)nn(Cc2ccccc2)c1N | inconclusive [inhibitor, full curve, poor fit]
66 | O=C(NC12CC3CC(CC(C3)C1)C2)C1CC(=O)N(c2ccccc2)C1 (stereo not given) | inconclusive [inhibitor, partial curve, poor fit]
67 | CC(C(=O)O)c1ccc(C(=O)c2cccs2)cc1 (stereo not given) | inconclusive [inhibitor, full curve, poor fit]
68 | Brc1ccc(CN2CCN(c3ccccn3)CC2)s1 | inactive
69 | NC(=S)N/N=C/c1ccccc1[N+](=O)[O-] | inactive
70 | CCCCNC(=O)COC(=O)c1ccc(NS(=O)(=O)c2ccc3c(c2)OCCO3)cc1 | inconclusive [inhibitor, full curve, poor fit]
